# Source: PubChem BioAssay (NCATS)
# The shares of active, inactive and inconclusive entries below differ from those in the screen. A potency beside an inconclusive call is a rough fit, not a confirmed value. Calls of active or inactive are those of the source. Calls come from the whole dose curve; as a rule, active = well fitted activation curve with a large enough effect in the signal ratio, with a control signal flat (not every such curve was filed as active); inconclusive = small, poorly fitted or top-dose-only effect, or effect the other way, or a change in a side signal; inactive = flat fitted curve, though single readings scatter; the % refers to the signal ratio.
# Assay: qHTS Assay for Identification of Small Molecule Agonists for Hypoxia Response Element Signaling Pathway (AID 914); for activation: top concentration of the series differs between compounds; % of control where 0% means no effect
# Conditions: ME-180 (cervical carcinoma) HRE-bla reporter, beta-lactamase ratio, CoCl2, 17 h; activation: hits give high values
# How it was run: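 In Opti-MEM containing 0.5% dialyzed FBS and 10 mM HEPES, ME-180 HRE-bla cells received a compound titration and EC50 CoCl2. They were incubated 17 hours, then CCF4-loaded 2.5 hours at room temperature before ratio reading.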
# Potency is the fitted concentration of half-maximal effect; tags give direction and shape of the fitted curve or compound fluorescence and quenching.
SMILES,Potency,activation
CCN(CC)S(=O)(=O)c1cccc2c(N(C)C)cccc12,"inconclusive: 12.6 µM [inhibitor, partial curve]",
Cc1cc(/C=N\O)c(C)n1-c1ccncc1,,inactive: 1.93%
CC(NC(=O)c1ccccc1)(C(=O)O)C(=O)O,,inconclusive: 2.51%
COc1ccc(Oc2ncc3ncc(=O)n(C[C@H]4CCCO4)c3n2)cc1,,inactive: -21.9%
COc1ccc(/C(O)=C2/C(=O)C(=O)N(CCCN(C)C)C2c2ccc(C)o2)cc1Cl (stereo not drawn),"inconclusive: 10 µM [inhibitor, partial curve]",
Brc1ccc2c(c1)CNc1c(ncnc1N1CCOCC1)O2,"inconclusive: 6.31 µM [inhibitor, partial curve]",
c1ccc(-c2nnc3sc(Cc4cccs4)nn23)cc1,"inconclusive: 10 µM [inhibitor, partial curve]",
O=c1cc(NCc2ccccc2)nc2n1CCCS2,"inconclusive: 10 µM [activator, partial curve]",
CCOC(=O)c1c(N)sc2c1CCC1C(=O)N(C3CCCCC3)C(=O)C21 (stereo not drawn),,inactive: -6.89%
Cc1nnc2n(Cc3ccccc3)c(=O)c3c4c(sc3n12)CN(Cc1ccccc1)CC4,"inconclusive: 10 µM [inhibitor, partial curve, poor fit]",
CC(=N\O)/C(CN(C)C)=N/O,,inconclusive: 13.1%
COC(=O)N1CCC2(CCCN(c3ncccn3)C2)CC1,,inactive: 12.6%
CC(C)C1Cc2c(C#N)c(N)sc(=S)c2CO1 (stereo not drawn),"inconclusive: 3.98 µM [inhibitor, partial curve]",
